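Dose response: 5 concentrations. Exposure: 48 h. Format: 96-well plates. Endpoint: linear interpolation; highest concentration if not reached. The concentration for 50% growth inhibition is given as GI50.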 Activity calls are given as the source filed them. Cut-off read from the data, not from the text of the source: active = GI50 up to about 1.1 µM and inactive = higher. A value given as a limit tells only on which side of the number the result lay.

These results are taken from ChEMBL document CHEMBL1201862, “PubChem BioAssay data set” (2004).

For this assay, the system named is NCI-H322M. Put plainly: NCI anticancer screen, dose series, 48 h.
As to `CN[C@@H]1C[C@H]2O[C@@](C)([C@@H]1OC)n1c3ccccc3c3c4c(c5c6ccccc6n2c5c31)C(=O)N[C@@H]4O`, the GI50 is active: 0.0845 µM. The result for `COc1cc2nc(-c3ccccc3)cc(O)c2cc1OC` reads inactive: 38.7 µM; that for `c1ccc2c(c1)Oc1cccc3cccc-2c13`, inactive: > 100 µM; that for `O=C1NC(=S)NC(=O)C1=C(O)Nc1ccccc1`, inactive: 41 µM. As for `OCCCN=C1CCCCC1`, the GI50 was inactive: > 100 µM. The result for `NCCN1C(=O)c2ccccc2C1(O)c1ccc(Cl)cc1` (stereo not drawn) reads inactive: 22.9 µM.

Regarding `COc1cc(-c2c(C(C)=O)c(-c3ccccc3)n(C3OC(COC(C)=O)C(OC(C)=O)C(OC(C)=O)C3OC(C)=O)c(=S)c2C#N)ccc1O` (stereo not drawn), the GI50 was inactive: > 100 µM.

On to `CN1C(=O)N/C(=C\c2ccc(S(=O)(=O)N/N=C\C(O)C(O)C(O)CO)cc2)C1=O` (stereo not drawn), for which the GI50 was inactive: > 100 µM. As for `CC(=O)OC[C@]12CCC3[C@@]4(C)CCCC(C)(C)C4CC[C@@]3(C)C1CC(C1=CC(=O)OC1O)O2` (stereo partly drawn), the GI50 was inactive: 2.23 µM. The result for `CC12OC(=O)C(C#N)C1(C)C1C(=O)CCCC12` (stereo not drawn) reads inactive: > 100 µM; that for `COc1ccc(OC)c(/C=C2\CCc3ccccc3C2=O)c1`, inactive: 4.83 µM.

Regarding `CCOC(=O)C(C)(C)/C=C\C(Cl)=C(Cl)Cl`, the GI50 is inactive: > 100 µM.

With `CC(C)(C)OC(=O)NCC(c1c[nH]c2ccccc12)c1c[nH]c2ccccc12`, the GI50 is inactive: 16.5 µM. The result for `CC(C)(C)/N=C\N(C=C(c1ccccc1)c1ccccc1)C1CCCCC1` reads inactive: 41.1 µM; that for `N#Cc1c2c([nH]c(=O)c1C#N)CCCC2`, inactive: > 100 µM; that for `CCOC(=O)/C(=N\OC)C(O)C(F)(F)F` (stereo not drawn), inactive: > 100 µM. Regarding `O=[N+]([O-])c1ccc(-c2noc(-c3ccc(Cl)cc3)c2C2=NCCN2)cc1`, the GI50 is inactive: > 100 µM. For `CC(C)=CC(=O)Cc1nc2ccccc2[nH]c1=O` the value was inactive: > 100 µM. With `CC1(O)CCn2c(=O)c3cc4ccccc4cc3c(=O)n2C1O` (stereo not drawn), the GI50 is inactive: > 100 µM.

Turning to `O=c1[nH]c(-n2[nH]c3c(c2=O)CCCC3)nc(O)c1-c1ccccc1`, the GI50 was inactive: > 100 µM.

`COc1ccc(C(C2=C(O)COC2=O)c2cc3c(cc2O)OCO3)cc1OC` (stereo not drawn): the GI50 is inactive: > 100 µM. Turning to `Cc1cccc(C(C)(C)C)c1NC(=O)C(=O)C(c1cnc2ccccc2n1)[N+](=O)[O-]` (stereo not drawn), the GI50 is inactive: > 100 µM. As to `CCOC(=O)C1CCC(=O)N1C(=O)c1ccc(Cl)cc1` (stereo not drawn), the GI50 was inactive: > 100 µM. In the case of `COC(=O)[C@]12CC[C@H]3CN(S(=O)(=O)c4ccc(C)cc4)[C@H]([C@H]31)[C@H](c1ccco1)N2S(=O)(=O)c1ccc(C)cc1`, the GI50 is inactive: > 100 µM. For the molecule `C[C@H]1[C@H](C)N1CC(O)Cn1ccnc1[N+](=O)[O-]` (stereo partly drawn), the GI50 is inactive: > 100 µM. In the case of `CC(C)Nc1n[nH]c(=O)n1C(C)C`, the GI50 was inactive: > 100 µM. As for `CC(C)=CCC[C@@H](C)C1=C(O)C(=O)C(C)=C(Nc2ccccc2I)C1=O`, the GI50 was inactive: 17.7 µM. For `CCN(CC)CC1CCCCCCCCCCC1=O` (stereo not drawn) the value was inactive: > 100 µM; for `CC(C)OP(=O)(OC(C)C)/C(C#N)=C/c1c[nH]c2ccccc12`, inactive: > 100 µM; for `C[C@@H](c1ccccc1)C(CC#N)[C@H]1CCC[C@]1(O)C#Cc1ccc2c(c1)OCO2` (stereo partly drawn), inactive: 17.4 µM. As for `COc1ccccc1C[C@@H]1OC2(C=CC(=O)CC2SC(=O)c2ccccc2)O[C@H]1Cc1ccccc1OC` (stereo partly drawn), the GI50 is inactive: 4.67 µM.

For `CC1OC(NCCNCCNC2OC(C)C(O)C(O)C2O)C(O)C(O)C1O` (stereo not drawn), the GI50 was inactive: > 100 µM. For `Cc1sc(N/N=C2\C(=O)Nc3ccccc32)nc1-c1ccccc1` the value was inactive: 16 µM. The result for `CC(C(=O)N1c2ccccc2Sc2ccccc21)N1c2ccccc2Sc2ccccc21` (stereo not drawn) reads inactive: > 100 µM; that for `CC(N)Cc1ccc(F)cc1` (stereo not drawn), inactive: > 100 µM; that for `CCCCn1c2c(n(CCCC)c1=S)-c1c(n(CCCC)c(=S)n1CCCC)SSc1c(n(CCCC)c(=S)n1CCCC)-c1c(n(CCCC)c(=S)n1CCCC)SSc1c(n(CCCC)c(=S)n1CCCC)-c1c(n(CCCC)c(=S)n1CCCC)SS2`, inactive: > 46.6 µM. In the case of `C=C=CC(NC(=O)c1ccccc1)(C(=O)O)C(F)(F)F` (stereo not drawn), the GI50 was inactive: > 100 µM.

For `COc1cc(S(=O)(=O)N/N=C/C=C/c2ccccc2)c(OC)cc1NC(C)=O`, the GI50 is inactive: > 100 µM. Regarding `O=C(/C=C1/Nc2ccc([N+](=O)[O-])cc2N/C1=C/C(=O)c1ccccc1)c1ccccc1`, the GI50 is inactive: 53.7 µM. As for `NC(=O)c1nc[nH]c1/N=N/SCC(N)C(=O)O` (stereo not drawn), the GI50 was inactive: > 56.6 µM.

Turning to `CC(=O)Nc1ccc2c(C)c3c(nc2n1)[nH]c1ccccc13`, the GI50 was inactive: 30.5 µM. As to `Cc1ccc2sc3cc(=O)cc(C)c-3nc2c1`, the GI50 is inactive: 97.3 µM. For `COc1cc2c(c(OC)c1OC)-c1cccc(=O)cc1C(NC(C)=O)CC2` (stereo not drawn) the value was active: 0.207 µM; for `O=C(NCCNCCO)N/N=C/c1cccc([N+](=O)[O-])c1`, inactive: > 100 µM. With `COC(=O)CCSC(=O)Nc1ccc(/N=N/c2ccccc2)cc1`, the GI50 was inactive: > 100 µM. As to `COc1cccc(/C(CC(O)(C(F)(F)F)C(F)(F)F)=N\N(C)C)c1`, the GI50 is inactive: > 100 µM. The result for `Clc1cccc(-c2sc(-c3cccs3)cc2Cc2cccs2)c1` reads inactive: > 10 µM; that for `C=C[C@@]1(C)CC[C@@H]2[C@@]3(C1)O[C@H]3CC1[C@](C)(C(=O)OC)CCC[C@@]12C` (stereo partly drawn), inactive: 10.5 µM. For `CS(=O)(=O)OCCn1cnc2nc(NC(=O)c3ccccc3)[nH]c(=O)c21` the value was inactive: 4.72 µM; for `O=P(NC12CC3CC(CC(C3)C1)C2)(N1CC1)N1CC1`, inactive: > 100 µM; for `C[C@]12CC[C@H]3[C@@H](CC=C4C[C@@H](O)CC[C@@]43C)[C@@H]1C/C(=C\c1ccncc1)[C@@H]2O`, inactive: 18.5 µM. For `O=C(N/C(=C\c1cccc([N+](=O)[O-])c1)c1nc2c3c(ccc2[nH]1)C(=O)c1ccccc1C3=O)c1ccccc1` the value was inactive: 19.8 µM; for `O=c1[nH]c2nc3ccccc3c(=O)n2/c1=C/c1ccccc1`, inactive: 77.4 µM. Turning to `O=c1cc(/N=N\c2ccc(Cl)cc2)[nH]c(=O)[nH]1`, the GI50 is inactive: 12.6 µM. Take `OC(c1nc2ccccc2s1)(C(F)(F)F)C(F)(F)F`: the GI50 was inactive: > 100 µM. Consider `Cc1ccc(OCC2OC(C#N)C(Oc3ccc(C)cc3)C2Oc2ccc(C)cc2)cc1` (stereo not drawn), for which the GI50 is inactive: > 100 µM.

Consider `COC(=O)C(Cc1ccccc1)NC(=O)CSc1nnc(COc2ccc(Cl)cc2)n1-c1ccccc1` (stereo not drawn), for which the GI50 was inactive: 23.5 µM. In the case of `Cc1ccccc1C(C#N)C(=O)C(=O)Nc1cccc(Cl)c1` (stereo not drawn), the GI50 is inactive: > 100 µM. Turning to `Cc1cc(O)nc(NNC(C#N)c2cccc(O)c2)n1` (stereo not drawn), the GI50 is inactive: > 100 µM.

Take `O=C(CC/C(C/C(=N/O)c1ccc(F)cc1)=N/O)N(Cc1ccccc1)Cc1ccccc1`: the GI50 is inactive: > 100 µM.

With `CC1=[N+]([O-])C(C)(C)N(N=O)C1(C)C`, the GI50 is inactive: > 10 µM.

On to `COc1cc(/C=C2\CCC(C)C3=C2N=c2s/c(=C/c4ccc(Cl)cc4)c(=O)n2C3c2cc(OC)c(OC)c(OC)c2)cc(OC)c1OC` (stereo not drawn), for which the GI50 is inactive: > 100 µM. `Cc1nc(C(N)=S)sc1C(=O)CC(=O)C(=O)Nc1nc2ccccc2[nH]1`: the GI50 was inactive: > 100 µM.

For `N/C(=N\c1ccc(Cl)cc1)c1ccccc1N`, the GI50 was inactive: > 100 µM. Consider `O=C(/C=C(\N=P(c1ccccc1)(c1ccccc1)c1ccccc1)C(F)(F)C(F)(F)C(F)(F)C(F)(F)C(F)(F)C(F)(F)C(F)(F)F)c1ccccc1`, for which the GI50 was inactive: > 100 µM.

As for `COc1cccc(/C=C2\N=C(c3ccccc3)OC2=O)c1`, the GI50 was inactive: > 100 µM. For `C[C@]12CC[C@H](OC3CCCCO3)CC1=CC[C@@H]1C2CC[C@]2(C)/C(=N/O)CCC12` (stereo partly drawn), the GI50 is inactive: 27.6 µM. As for `CC(C)NC(=O)OCc1nnn2c1CCC2`, the GI50 is inactive: > 100 µM. As to `COC(=O)[C@@H]1CN(C(=O)CCc2ccccc2)C(=O)N1C(=O)OCc1ccccc1`, the GI50 was inactive: > 100 µM.

For `CN(C)/N=N/c1ccc2[nH]c(=O)[nH]c2c1`, the GI50 was inactive: > 100 µM. As for `O=C(c1cccs1)N(C(=O)N1CCCCC1)c1ccccc1`, the GI50 is inactive: > 100 µM. With `CC1=NN=C(N)NC1=CC(Sc1ccc(Cl)cc1)c1c(O)ccc2ccccc12` (stereo not drawn), the GI50 is inactive: 20.3 µM. Consider `NC(=O)NC(=O)c1cccc(C(=O)NC(N)=O)n1`, for which the GI50 was inactive: > 100 µM. The result for `O=C1C(c2ccc([N+](=O)[O-])cc2)=C(Cl)C(=O)c2c(O)cccc21` reads inactive: 30.3 µM; that for `O=C1C2Cc3ccccc3CN2C(=O)N1CCN1CCOCC1` (stereo not drawn), inactive: > 100 µM. Take `Brc1ccc2ns[s+]c2c1`: the GI50 was inactive: > 24.5 µM. With `O=P(O)(O)OP(=O)(O)O`, the GI50 is inactive: > 100 µM. Turning to `CCSC1SC(c2ccccc2)(c2ccccc2)c2ccccc21` (stereo not drawn), the GI50 is inactive: 41.4 µM.

Regarding `COC1CCC2C(NS(=O)(=O)c3ccc(C)cc3)CCCC2O1.Cc1ccc(S(=O)(=O)NC(C)(C)C=O)cc1` (stereo not drawn), the GI50 is inactive: 16.4 µM. For `O=C(Cc1ccccc1F)NC1=C(Cl)C(=O)c2ccccc2C1=O` the value was inactive: 5.25 µM; for `OCCCCCNc1nc(O)c2[nH]cnc2n1`, inactive: > 100 µM.

In the case of `C=C(C)C(O)CCC1(C)C=Cc2c(c(C)cc3c2[nH]c2ccccc23)O1` (stereo not drawn), the GI50 was inactive: 18.8 µM.

For `Cc1ccc(/C=C/C(=O)c2cc(CN(C)C)c(O)c(CN(C)C)c2)cc1`, the GI50 is inactive: 15.4 µM.
